Reference: the supplement of paper PMC11741623
The other results are listed elsewhere or left out. Interaction screen of human proteins with wild-type SARS-CoV-2 proteins by split-DHFR complementation in yeast, 1 µg/mL methotrexate. Value = fitness of the pair (three or more lineages) minus that of the viral protein without a human partner, on a scale set by negative (0) and fused positive (1) controls, mean of up to three cultures; higher = more likely to interact. Active = false discovery rate below 0.05 (one-sided t-test) in at least one culture. Nearly all pairs are not hits, and differences among them are mostly noise (correlation between cultures about 0.3); most hits were seen in one culture only. Human sequences are the Swiss-Prot entries looked up by gene name; the clone may be another isoform. NSP2 values were corrected by the authors for a growth advantage. Listed are human proteins with a hit and a random twelfth of the others.

Assays:
Assay in all cases: yeast fitness gain over the viral ORF with no human partner (scaled fitness); higher = more likely to interact
SARS-CoV-2 M = target: SARS-CoV-2 M
Experimental: (§1)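 Split mouse DHFR complementation in pooled diploid yeast: human ORFeome clones carry one fragment and viral ORFs the other; barcoded lineages compete in 1 µg/mL methotrexate and fitness is read by barcode sequencing in up to three cultures.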

SARS-CoV-2 NSP1 = target: SARS-CoV-2 NSP1
Experimental: as §1

SARS-CoV-2 NSP10 = target: SARS-CoV-2 NSP10
Experimental: as §1

SARS-CoV-2 NSP12 = target: SARS-CoV-2 NSP12
Experimental: as §1

SARS-CoV-2 NSP13 = target: SARS-CoV-2 NSP13
Experimental: as §1

SARS-CoV-2 NSP15 = target: SARS-CoV-2 NSP15
Experimental: as §1

SARS-CoV-2 NSP16 = target: SARS-CoV-2 NSP16
Experimental: as §1

SARS-CoV-2 NSP2 = target: SARS-CoV-2 NSP2
Experimental: as §1

SARS-CoV-2 NSP4 = target: SARS-CoV-2 NSP4
Experimental: as §1

SARS-CoV-2 NSP5 = target: SARS-CoV-2 NSP5
Experimental: as §1

SARS-CoV-2 NSP6 = target: SARS-CoV-2 NSP6
Experimental: as §1

SARS-CoV-2 NSP7 = target: SARS-CoV-2 NSP7
Experimental: as §1

SARS-CoV-2 NSP8 = target: SARS-CoV-2 NSP8
Experimental: as §1

SARS-CoV-2 NSP9 = target: SARS-CoV-2 NSP9
Experimental: as §1

SARS-CoV-2 ORF10 = target: SARS-CoV-2 ORF10
Experimental: as §1

SARS-CoV-2 ORF3B = target: SARS-CoV-2 ORF3B
Experimental: as §1

SARS-CoV-2 ORF6 = target: SARS-CoV-2 ORF6
Experimental: as §1

SARS-CoV-2 ORF7A = target: SARS-CoV-2 ORF7A
Experimental: as §1

SARS-CoV-2 ORF7B = target: SARS-CoV-2 ORF7B
Experimental: as §1

SARS-CoV-2 ORF8 = target: SARS-CoV-2 ORF8
Experimental: as §1

SARS-CoV-2 ORF9B = target: SARS-CoV-2 ORF9B
Experimental: as §1

[1] = target: SARS-CoV-2 ORF9Bwu (the 73-codon ORF)
Experimental: as §1

SARS-CoV-2 S = target: SARS-CoV-2 S
Experimental: as §1

SARS-CoV-2 NSP14 = target: SARS-CoV-2 NSP14
Experimental: as §1

SARS-CoV-2 ORF3A = target: SARS-CoV-2 ORF3A
Experimental: as §1

Measured: yeast fitness gain

B1: PADI3, Q9ULW8 (protein)
chain: MSLQRIVRVSLEHPTSAVCVAGVETLVDIYGSVPEGTEMFEVYGTPGVDIYISPNMERGRERADTRRWRFDATLEIIVVMNSPSNDLNDSHVQISYHSSHEPLPLAYAVLYLTCVDISLDCDLNCEGRQDRNFVDKRQWVWGPSGYGGILLVNCDRDDPSCDVQDNCDQHVHCLQDLEDMSVMVLRTQGPAALFDDHKLVLHTSSYDAKRAQVFHICGPEDVCEAYRHVLGQDKVSYEVPRLHGDEERFFVEGLSFPDAGFTGLISFHVTLLDDSNEDFSASPIFTDTVVFRVAPWIMTPSTLPPLEVYVCRVRNNTCFVDAVAELARKAGCKLTICPQAENRNDRWIQDEMELGYVQAPHKTLPVVFDSPRNGELQDFPYKRILGPDFGYVTREPRDRSVSGLDSFGNLEVSPPVVANGKEYPLGRILIGGNLPGSSGRRVTQVVRDFLHAQKVQPPVELFVDWLAVGHVDEFLSFVPAPDGKGFRMLLASPGACFKLFQEKQKCGHGRALLFQGVVDDEQVKTISINQVLSNKDLINYNKFVQSCIDWNREVLKRELGLAECDIIDIPQLFKTERKKATAFFPDLVNMLVLGKHLGIPKPFGPIINGCCCLEEKVRSLLEPLGLHCTFIDDFTPYHMLHGEVHCGTNVCRKPFSFKWWNMVP
inactive: SARS-CoV-2 M -0.0473 | SARS-CoV-2 NSP1 = 0.0316 | SARS-CoV-2 NSP10 = -0.0651 | SARS-CoV-2 NSP12 = 0.0148 | SARS-CoV-2 NSP13 = -0.0152 | SARS-CoV-2 NSP15 = 0.0146 | SARS-CoV-2 NSP16 = -0.0377 | SARS-CoV-2 NSP2 = -0.0861 | SARS-CoV-2 NSP4 = -0.237 | SARS-CoV-2 NSP5 = 0.125 | SARS-CoV-2 NSP6 = -0.0678 | SARS-CoV-2 NSP7 = -0.0595 | SARS-CoV-2 NSP8 = 0.00882 | SARS-CoV-2 NSP9 = -0.0821 | SARS-CoV-2 ORF10 = 0.0476 | SARS-CoV-2 ORF3B -0.036 | SARS-CoV-2 ORF6 = -0.0489 | SARS-CoV-2 ORF7A -0.109 | SARS-CoV-2 ORF7B 0.0513 | SARS-CoV-2 ORF8 = 0.0362 | SARS-CoV-2 ORF9B -0.0535 | [1] 0.0383 | SARS-CoV-2 S -0.0845

B2: ZNF488, Q96MN9 (protein)
chain: MPEWPPCLSVAPALVITMAAGKGAPLSPSAENRWRLSEPELGRGCKPVLLEKTNRLGPEAAVGRAGRDVGSAELALLVAPGKPRPGKPLPPKTRGEQRQSAFTELPRMKDRQVDAQAQEREHDDPTGQPGAPQLTQNIPRGPAGSKVFSVWPSGARSEQRSAFSKPTKRPAERPELTSVFPAGESADALGELSGLLNTTDLACWGRLSTPKLLVGDLWNLQALPQNAPLCSTFLGAPTLWLEHTQAQVPPPSSSSTTSWALLPPTLTSLGLSTQNWCAKCNLSFRLTSDLVFHMRSHHKKEHAGPDPHSQKRREEALACPVCQEHFRERHHLSRHMTSHS
inactive: SARS-CoV-2 M 0.0719 | SARS-CoV-2 NSP1 = -0.121 | SARS-CoV-2 NSP10 = -0.0911 | SARS-CoV-2 NSP12 = 0.00238 | SARS-CoV-2 NSP13 = -0.0917 | SARS-CoV-2 NSP14 = -0.2 | SARS-CoV-2 NSP2 = -0.101 | SARS-CoV-2 NSP5 = 0.112 | SARS-CoV-2 NSP7 = 0.00278 | SARS-CoV-2 NSP8 = -0.112 | SARS-CoV-2 NSP9 = 0.0325 | SARS-CoV-2 ORF10 = 0.0262 | SARS-CoV-2 ORF3B -0.0562 | SARS-CoV-2 ORF6 = 0.0526 | SARS-CoV-2 ORF7A 0.041 | SARS-CoV-2 ORF7B -0.0107 | SARS-CoV-2 ORF8 = -0.012 | SARS-CoV-2 ORF9B -0.241 | [1] 0.0483 | SARS-CoV-2 S 0.0757

B3: HUS1, O60921 (protein)
chain: MKFRAKIVDGACLNHFTRISNMIAKLAKTCTLRISPDKLNFILCDKLANGGVSMWCELEQENFFNEFQMEGVSAENNEIYLELTSENLSRALKTAQNARALKIKLTNKHFPCLTVSVELLSMSSSSRIVTHDIPIKVIPRKLWKDLQEPVVPDPDVSIYLPVLKTMKSVVEKMKNISNHLVIEANLDGELNLKIETELVCVTTHFKDLGNPPLASESTHEDRNVEHMAEVHIDIRKLLQFLAGQQVNPTKALCNIVNNKMVHFDLLHEDVSLQYFIPALS
inactive: SARS-CoV-2 M -0.374 | SARS-CoV-2 NSP1 = 0.00919 | SARS-CoV-2 NSP10 = 0.0198 | SARS-CoV-2 NSP12 = 0.0404 | SARS-CoV-2 NSP13 = -0.0345 | SARS-CoV-2 NSP2 = -0.0396 | SARS-CoV-2 NSP5 = -0.0673 | SARS-CoV-2 NSP6 = -0.00739 | SARS-CoV-2 NSP7 = 0.00599 | SARS-CoV-2 NSP8 = -0.169 | SARS-CoV-2 ORF10 = -0.0798 | SARS-CoV-2 ORF3A -0.0135 | SARS-CoV-2 ORF6 = -0.00717 | SARS-CoV-2 ORF7A 0.0874 | SARS-CoV-2 ORF7B -0.000463 | SARS-CoV-2 ORF8 = -0.0201 | SARS-CoV-2 ORF9B -0.0403 | [1] -0.00544 | SARS-CoV-2 S -0.0087

B4: FARP2, O94887 (protein)
chain: MGEIEGTYRVLQTAGMRLGAQTPVGVSTLEPGQTLLPRMQEKHLHLRVKLLDNTMEIFDIEPKCDGQVLLTQVWKRLNLVECDYFGMEFQNTQSYWIWLEPMKPIIRQIRRPKNVVLRLAVKFFPPDPGQLQEEYTRYLFALQLKRDLLEERLTCADTTAALLTSHLLQSEIGDYDETLDREHLKVNEYLPGQQHCLEKILEFHQKHVGQTPAESDFQVLEIARKLEMYGIRFHMASDREGTKIQLAVSHMGVLVFQGTTKINTFNWSKVRKLSFKRKRFLIKLHPEVHGPYQDTLEFLLGSRDECKNFWKICVEYHTFFRLLDQPKPKAKAVFFSRGSSFRYSGRTQKQLVDYFKDSGMKRIPYERRHSKTHTSVRALTADLPKQSISFPEGLRTPASPSSANAFYSLSPSTLVPSGLPEFKDSSSSLTDPQVSYVKSPAAERRSGAVAGGPDTPSAQPLGPPALQPGPGLSTKSPQPSPSSRKSPLSLSPAFQVPLGPAEQGSSPLLSPVLSDAGGAGMDCEEPRHKRVPADEAYFIVKEILATERTYLKDLEVITVWFRSAVVKEDAMPATLMTLLFSNIDPIYEFHRGFLREVEQRLALWEGPSKAHTKGSHQRIGDILLRNMRQLKEFTSYFQRHDEVLTELEKATKRCKKLEAVYKEFELQKVCYLPLNTFLLKPIQRLLHYRLLLRRLCGHYSPGHHDYADCHDALKAITEVTTTLQHILIRLENLQKLTELQRDLVGIENLIAPGREFIREGCLHKLTKKGLQQRMFFLFSDMLLYTSKGVAGTSHFRIRGLLPLQGMLVEESDNEWSVPHCFTIYAAQKTIVVAASTRLEKEKWMLDLNSAIQAAKSGGDTAPALPGRTVCTRPPRSPNEVSLEQESEDDARGVRSSLEGHGQHRANTTMHVCWYRNTSVSRADHSAAVENQLSGYLLRKFKNSHGWQKLWVVFTNFCLFFYKTHQDDYPLASLPLLGYSVSIPREADGIHKDYVFKLQFKSHVYFFRAESKYTFERWMEVIQGASSSAGRAPSIVQDGPQPSSGLEGMVRGKEE
inactive: SARS-CoV-2 M 0.0194 | SARS-CoV-2 NSP10 = -0.122 | SARS-CoV-2 NSP12 = -0.0584 | SARS-CoV-2 NSP13 = -0.243 | SARS-CoV-2 NSP2 = 0.0312 | SARS-CoV-2 NSP4 = -0.2 | SARS-CoV-2 NSP5 = -0.00429 | SARS-CoV-2 ORF10 = 0.0178 | SARS-CoV-2 ORF3A -0.309 | SARS-CoV-2 ORF3B 0.023 | SARS-CoV-2 ORF6 = -0.553 | SARS-CoV-2 ORF7B 0.0855 | SARS-CoV-2 ORF8 = -0.0345 | SARS-CoV-2 ORF9B -0.0597 | SARS-CoV-2 S 0.085
